About 540 (0.36%) of roughly 150,000 compounds showed an effect of 50% or more. Some of the results follow.

This test relates to Plasmodium falciparum. The test can be described thus: Primary screen in NF54 nanoGlo assay, in single point, at 2uM, 72h; a lower Z score goes with more inhibition. The format is functional, Erythrocyte. The following applies: timepoint 72 hour.
In the case of `Cc1ccc(CN2C(=O)NC3(CCCCC3C)C2=O)c(OCC2CCOC2)c1` (configuration not stated), the “% Inhibition” value is given as 36% and the Z score is listed as -4.91.
In the same order, the values of `Cc1cc(CN(C)CC2(CO)CCC2)[nH]n1` are 2% and -0.3.
Taken in the same sequence, the figures for `O=C(C1CCC(C(=O)N2CCCc3ccccc32)CC1)N1CCCc2ccccc21` (configuration not stated) were -7% and 0.75.
In the same order, the values of `Cc1cc(C)n(CCCNc2nnc(C(C)(C)C)s2)n1` are -11% and 2.04.
In the case of `NC(=O)[C@@H]1Cc2ccccc2N1S(=O)(=O)c1cc(C(=O)O)cc2c1CCC2`, the “% Inhibition” value was -16% and the Z score is 1.74.
Take `CN(Cc1cccc(N(C)C)c1)C(=O)c1n[nH]c2c1CCC2`: the “% Inhibition” value is listed as -4% and the Z score turned out to be 0.58.
Taken in the same sequence, the figures for `O=C(NC1CC1)C(c1ccc(F)cc1)N1CCCC1Cn1cccn1` (configuration not stated) were -4% and 0.38.
In the same order, the values of `O=S(=O)(NCC1(c2ccc(F)cc2)CC1)c1cccnc1` are -7% and 1.02.
Taken in the same sequence, the figures for `CCC(=O)N1CCC(c2nc(C)ccc2C(=O)N(C)C(C)C)CC1` were -8% and 1.22.
`COc1c(C)cc(C)cc1-c1cn(Cc2cccc(C(=O)N(C)C)c2)nn1`: the “% Inhibition” value is listed as -1% and the Z score was found to be 0.23.
With `Cc1cccc(C2C(C(=O)O)CC(=O)N2Cc2cccnc2)c1C` (configuration not stated), the “% Inhibition” value is recorded as -1% and the Z score turned out to be 0.17.
As for `Cn1nc(C(=O)N2CCOCC2)cc1C(=O)Nc1ncn(Cc2ccc(Cl)cc2Cl)n1`, the “% Inhibition” value was determined as 6% and the Z score is -0.75.
In the case of `CC(C)c1ccc(C(=O)N(Cc2cccnc2)C2CCCCC2)c(=O)n1C`, the “% Inhibition” value is listed as 16% and the Z score is -2.2.
Taken in the same sequence, the figures for `O=C(CCc1ccsc1)NCc1nnc2ccccn12` were -1% and 0.07.
For the compound `Cc1c([C@@H]2CCCN2c2ncnc(N)c2Cl)cnn1C`, the “% Inhibition” value is recorded as -3% and the Z score turned out to be 0.6.
Taken in the same sequence, the figures for `COc1cc(Cc2nnc(C(=O)NCCc3ccc(Cl)cc3)o2)cc(OC)c1OC` were 1% and -0.08.
In the same order, the values of `O=C(NCC(F)(F)C(F)F)c1cnsn1` are -11% and 1.12.
In the same order, the values of `CN(Cc1cnc2ccccn12)[C@@H](C(N)=O)c1cccc(F)c1` are 7% and -0.66.
On to `Cc1ncsc1-c1nc(-c2cccs2)no1`, for which the “% Inhibition” value was 7% and the Z score was -1.24.
`CS(=O)(=O)CC1(CN2CCOC[C@@]23CCOC3)CC1`: the “% Inhibition” value is reported as -9% and the Z score was determined as 1.71.
`COCCN1CCN(Cc2cccc(C)c2)[C@H]2CS(=O)(=O)C[C@H]21`: the “% Inhibition” value is -11% and the Z score came out at 2.19.
In the same order, the values of `CCN1CCC(N(C)C(=O)c2cccc3[nH]c(C(F)F)nc23)CC1` are -4% and 0.38.
Taken in the same sequence, the figures for `Cn1ncc(C(=O)N2CCNC(=O)C2(C)C)c1C(F)F` were -5% and 0.68.
Taken in the same sequence, the figures for `Cc1cc(C(=O)NCc2cccnc2N2CCOCC2)ns1` were -9% and 1.45.
As for `CCCN1C(=O)c2cc(C(=O)NC(C)C)nn2C[C@@]1(C)C(=O)NC1CCCC1`, the “% Inhibition” value is recorded as 13% and the Z score is reported as -1.49.
For `O=C1c2cccnc2CN1CCCN1CCOCC1`, the “% Inhibition” value is recorded as -8% and the Z score is on record as 1.46.
In the same order, the values of `Cc1ccc2c(c1)OCCN2CCCC(=O)O` are -13% and 1.64.
In the case of `C[C@H]1CN(c2ccnc(Cc3ccc(F)cc3)n2)CCCO1`, the “% Inhibition” value is -12% and the Z score came to 1.31.
Take `CC(=O)N(CCN1CCCCC1)[C@H]1CCCN(Cc2ccc3c(c2)OCCO3)C1`: the “% Inhibition” value is reported as -14% and the Z score came out at 1.91.
Taken in the same sequence, the figures for `CC(C)(C)c1nnc(CNC(=O)[C@@H]2CCCN2C(=O)c2ccccc2O)s1` were 1% and -0.12.
In the same order, the values of `CC(C)c1nsc(NC(=O)c2cccc(CN3C[C@H]4CC[C@@H](C3)N4)c2)n1` are -6% and 0.75.
Taken in the same sequence, the figures for `CCn1cc(CC(=O)N2CC[C@@]3(CCc4ccccc43)C2)nn1` were 0% and -0.05.
Regarding `O=C1CN(C2CC2)C(=O)[C@H](c2ccccc2Br)N1`, the “% Inhibition” value is -13% and the Z score was 2.48.
In the same order, the values of `Cn1ccnc1CCNC(=O)c1ccc2c(c1)CCCC2` are -28% and 2.44.
Taken in the same sequence, the figures for `COc1ccc(/C=C(\NO)C(=O)O)cc1` were -6% and 0.83.
In the same order, the values of `CC(=O)N1CCC(Oc2ccnc(C)n2)CC1` are 0% and 0.05.
As for `CCOCC(=O)NCC1(c2ccsc2)CCOCC1`, the “% Inhibition” value is recorded as 8% and the Z score is recorded as -1.2.
As for `C=CCN(C(=O)[C@@H](O)C1CCN(C(=O)OC(C)(C)C)CC1)C1CC1`, the “% Inhibition” value is -1% and the Z score amounted to 0.23.
Consider `O=S(=O)(CCC1CC1)N1CCC[C@H](n2ccnn2)C1`, for which the “% Inhibition” value is given as -6% and the Z score amounted to 0.95.
Turning to `CCCC[C@H]1CN(CCNC(=O)Cn2cnnn2)Cc2ccccc2O1`, the “% Inhibition” value was -4% and the Z score stood at 0.54.
Take `COc1ccc(C(=O)C2C(c3ccc4c(c3)OCO4)NC(=O)NC2(O)C(F)(F)F)cc1` (configuration not stated): the “% Inhibition” value came out at 8% and the Z score was -1.42.
As to `CCc1ccc(NC(=O)c2nnc(CN(C)C[C@H](O)CO)s2)cc1`, the “% Inhibition” value was 0% and the Z score is 0.03.
In the same order, the values of `CC(N)C1CCCN(C(=O)c2c[nH]nc2-c2ccc(F)c(Cl)c2)C1` (configuration not stated) are -5% and 0.88.
Taken in the same sequence, the figures for `Fc1ccc(C[C@@H]2NCCn3cccc32)cc1` were -1% and 0.16.
Taken in the same sequence, the figures for `Cc1ccc2c(c1)[C@@H](NC(=O)N(C)C1CCS(=O)(=O)CC1)CC(C)(C)O2` were -12% and 1.92.
As for `O=C(Nc1ccccc1Cl)N1CCC(c2ccsc2)CC1`, the “% Inhibition” value is -8% and the Z score amounted to 1.19.
`Cc1noc(C)c1CNc1cc(S(=O)(=O)N2CCOCC2)ccc1N1CCCC1`: the “% Inhibition” value is on record as 5% and the Z score is -0.81.
Turning to `COc1cc(-c2cc(N3CCN(C)CC3)nc(N)n2)c(Cl)cn1`, the “% Inhibition” value is listed as -11% and the Z score is recorded as 1.22.
With `COc1ccc(Cc2nc3nccc(-c4ccc(F)cc4OC)n3n2)cc1`, the “% Inhibition” value stood at 4% and the Z score is listed as -0.44.
In the same order, the values of `COCc1cc(O)nc(N2CC[C@H](Nc3ncccn3)C2)n1` are -13% and 1.47.
`CN(c1ncnc2c1c(-c1ccccc1)cn2-c1ccccc1)C1CCCCC1`: the “% Inhibition” value was -16% and the Z score turned out to be 2.87.
Consider `CC[C@H](C)n1ncc(C(=O)NCCc2c[nH]c3ccccc23)c1C`, for which the “% Inhibition” value was found to be 6% and the Z score is listed as -0.58.
For the compound `O=C(CCc1ccc2c(c1)OCO2)N1CCCC1`, the “% Inhibition” value was -3% and the Z score is 0.4.
Taken in the same sequence, the figures for `O=C(Cc1ccccc1)N[C@H]1CC(=O)N(c2ccc3c(c2)OCCO3)C1` were -6% and 1.16.
`CCc1ccc(CN2CCN(C(=O)[C@@H]3CCC(=O)N3)CC2)s1`: the “% Inhibition” value is listed as -6% and the Z score is 1.02.
In the same order, the values of `CN(C)S(=O)(=O)N(CCC1CCC1)c1ccccc1Br` are 2% and -0.21.

These data come from ChEMBL document CHEMBL4888484, “Replenishing the malaria drug discovery pipeline: Screening and hit evaluation of the MMV Hit Generation Library 1 (HGL1) against asexual blood stage Plasmodium falciparum ,using a nano luciferase reporter read-out” (2022).
